{"source": "the BET-seq Pho4 binding data (Le et al. 2018)", "note": "The other results are listed elsewhere or left out. These are noisy estimates, calculated here from bound and input reads.", "data": [{"molecular_target": "T1, Pho4 (S. cerevisiae) (UniProt P07270)", "T1 sequence": "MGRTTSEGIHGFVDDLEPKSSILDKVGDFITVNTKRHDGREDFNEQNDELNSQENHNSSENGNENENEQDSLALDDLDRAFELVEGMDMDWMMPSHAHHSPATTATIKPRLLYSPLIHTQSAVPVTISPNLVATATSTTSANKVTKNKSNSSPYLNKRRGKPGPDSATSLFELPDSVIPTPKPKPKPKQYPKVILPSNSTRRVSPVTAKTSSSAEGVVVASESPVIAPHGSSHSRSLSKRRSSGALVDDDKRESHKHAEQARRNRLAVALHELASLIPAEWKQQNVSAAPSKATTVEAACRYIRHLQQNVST", "experiment": "relative binding free energy (BET-seq); higher = weaker binding", "settings": "reference: library average", "units": {"relative binding free energy": "kcal/mol"}, "values": [{"sequence": "GGGGGCACGTGTCGAT", "relative binding free energy": -0.09}, {"sequence": "GATGCCACGTGTGGAG", "relative binding free energy": 0.16}, {"sequence": "GAAGTCACGTGTGATG", "relative binding free energy": 0.28}, {"sequence": "GTTGGCACGTGTTCCG", "relative binding free energy": -0.04}, {"sequence": "GTAAGCACGTGGCATG", "relative binding free energy": -0.16}, {"sequence": "TAGATCACGTGAAGTG", "relative binding free energy": 0.27}, {"sequence": "GCTCGCACGTGAGGTT", "relative binding free energy": 0.37}, {"sequence": "TGGATCACGTGGAATA", "relative binding free energy": 0.18}, {"sequence": "ATAGTCACGTGGATGA", "relative binding free energy": -0.01}, {"sequence": "TATAGCACGTGTGAAA", "relative binding free energy": 0.04}, {"sequence": "GGGTGCACGTGACTTT", "relative binding free energy": 0.2}, {"sequence": "TGTTGCACGTGCGCTT", "relative binding free energy": -0.01}, {"sequence": "TAGTTCACGTGTGAAT", "relative binding free energy": 0.23}, {"sequence": "CGTTGCACGTGGGCTT", "relative binding free energy": -0.15}, {"sequence": "CTATTCACGTGGTTTG", "relative binding free energy": 0.19}, {"sequence": "TTTAGCACGTGCATTA", "relative binding free energy": -0.07}, {"sequence": "TAATGCACGTGAGCGG", "relative binding free energy": 0.26}, {"sequence": "AGGGGCACGTGTGACG", "relative binding free energy": -0.2}, {"sequence": "TATTGCACGTGAAGCG", "relative binding free energy": 0.13}, {"sequence": "GTTGGCACGTGGAGAC", "relative binding free energy": 0.05}, {"sequence": "GTGTTCACGTGATTTC", "relative binding free energy": 0.4}, {"sequence": "ATTTTCACGTGCGGCT", "relative binding free energy": 0.17}, {"sequence": "TGTTGCACGTGCTGAT", "relative binding free energy": -0.01}, {"sequence": "TCGGGCACGTGTGATG", "relative binding free energy": -0.11}, {"sequence": "GTATGCACGTGTGAAA", "relative binding free energy": 0.2}, {"sequence": "AGGGACACGTGGCCGG", "relative binding free energy": -0.02}, {"sequence": "TGTGGCACGTGGGGGA", "relative binding free energy": -0.21}, {"sequence": "AAGGTCACGTGTAAAT", "relative binding free energy": 0.39}, {"sequence": "GCGGGCACGTGTCAGG", "relative binding free energy": -0.06}, {"sequence": "AAGCGCACGTGTGGGA", "relative binding free energy": -0.07}, {"sequence": "AGAGTCACGTGGATGA", "relative binding free energy": 0.19}, {"sequence": "TTAGTCACGTGTCGCT", "relative binding free energy": 0.05}, {"sequence": "TTCGTCACGTGCTTGG", "relative binding free energy": -0.03}, {"sequence": "GACGGCACGTGCGTGG", "relative binding free energy": -0.11}, {"sequence": "ATTCACACGTGATGTG", "relative binding free energy": 0.21}, {"sequence": "TTTGTCACGTGCATAG", "relative binding free energy": 0.05}, {"sequence": "GGGATCACGTGTGTGA", "relative binding free energy": 0.26}, {"sequence": "GGTCACACGTGATGGT", "relative binding free energy": 0.31}, {"sequence": "TTAGACACGTGGGGTA", "relative binding free energy": -0.19}, {"sequence": "GGAGCCACGTGTTTTT", "relative binding free energy": 0.04}, {"sequence": "AGTTGCACGTGTAGGG", "relative binding free energy": 0.1}, {"sequence": "CGAGTCACGTGTGTGA", "relative binding free energy": 0.04}, {"sequence": "GGTATCACGTGGGCTT", "relative binding free energy": 0.05}, {"sequence": "TAAGTCACGTGTAAGA", "relative binding free energy": 0.22}, {"sequence": "TAACGCACGTGGGATG", "relative binding free energy": -0.22}, {"sequence": "GTTGGCACGTGTGGTC", "relative binding free energy": 0.08}, {"sequence": "CATTACACGTGTTGGT", "relative binding free energy": 0.03}, {"sequence": "GTGTGCACGTGAAGGC", "relative binding free energy": 0.17}, {"sequence": "AGAATCACGTGGTTGG", "relative binding free energy": 0.13}, {"sequence": "ATATTCACGTGTAGTT", "relative binding free energy": 0.25}, {"sequence": "CTAGGCACGTGGGATT", "relative binding free energy": -0.13}, {"sequence": "GGGCACACGTGGAGGT", "relative binding free energy": 0.05}, {"sequence": "CGGTGCACGTGTGTTG", "relative binding free energy": -0.02}, {"sequence": "TTGATCACGTGGGATC", "relative binding free energy": 0.09}, {"sequence": "CATTACACGTGGTTGG", "relative binding free energy": 0.04}, {"sequence": "TGCGCCACGTGGTAGG", "relative binding free energy": -0.14}, {"sequence": "CTGGGCACGTGTTAGT", "relative binding free energy": -0.06}, {"sequence": "AATGTCACGTGGTGAT", "relative binding free energy": 0.05}, {"sequence": "TATGACACGTGTGAAT", "relative binding free energy": 0.05}, {"sequence": "ATTGACACGTGCTGAG", "relative binding free energy": 0.02}, {"sequence": "TGTGGCACGTGGAAGA", "relative binding free energy": -0.12}, {"sequence": "CGTTGCACGTGGCTTG", "relative binding free energy": -0.13}, {"sequence": "AGATTCACGTGTGTCT", "relative binding free energy": 0.17}, {"sequence": "AAGTTCACGTGGCGCT", "relative binding free energy": 0.25}, {"sequence": "ATTGGCACGTGGCCGG", "relative binding free energy": -0.21}, {"sequence": "AAGCGCACGTGGGGCG", "relative binding free energy": -0.21}, {"sequence": "TATTTCACGTGAGGCA", "relative binding free energy": 0.61}, {"sequence": "TGGGACACGTGCGGTC", "relative binding free energy": 0.07}, {"sequence": "GTCGACACGTGGTGCG", "relative binding free energy": -0.04}, {"sequence": "GACAGCACGTGGTTGG", "relative binding free energy": -0.01}, {"sequence": "TTCTACACGTGGTTTT", "relative binding free energy": 0.03}, {"sequence": "ATTCACACGTGTTAGG", "relative binding free energy": -0.04}, {"sequence": "CTTAGCACGTGATGTG", "relative binding free energy": 0.02}, {"sequence": "GGGTTCACGTGAGAAG", "relative binding free energy": 0.5}, {"sequence": "GGTAGCACGTGCCGGG", "relative binding free energy": -0.08}, {"sequence": "ACTGTCACGTGGGGCG", "relative binding free energy": 0.07}, {"sequence": "CTTGGCACGTGGTACG", "relative binding free energy": -0.26}, {"sequence": "AATGTCACGTGTGAAG", "relative binding free energy": 0.14}, {"sequence": "TTTTCCACGTGAGGTA", "relative binding free energy": 0.25}, {"sequence": "TTCGCCACGTGTAGGG", "relative binding free energy": -0.12}, {"sequence": "CTAGACACGTGAGGTG", "relative binding free energy": 0.2}, {"sequence": "TTTCTCACGTGTGGAT", "relative binding free energy": 0.26}, {"sequence": "GGGGGCACGTGGGGAC", "relative binding free energy": -0.15}, {"sequence": "AGGTTCACGTGTCCTG", "relative binding free energy": 0.28}, {"sequence": "AAGTTCACGTGCATGT", "relative binding free energy": 0.2}, {"sequence": "AGCGGCACGTGGGCGG", "relative binding free energy": -0.13}, {"sequence": "AACGACACGTGTTGGG", "relative binding free energy": 0.02}, {"sequence": "GTTAACACGTGGTGTG", "relative binding free energy": -0.02}, {"sequence": "TATTACACGTGATGTA", "relative binding free energy": 0.1}, {"sequence": "GTCCTCACGTGGTGTG", "relative binding free energy": 0.15}, {"sequence": "ATGTCCACGTGATAGG", "relative binding free energy": 0.15}, {"sequence": "CGTTACACGTGAGGGT", "relative binding free energy": 0.15}, {"sequence": "AAGGACACGTGGTTGA", "relative binding free energy": -0.02}, {"sequence": "TTTGGCACGTGCAAGG", "relative binding free energy": -0.12}, {"sequence": "GTCTGCACGTGTTATG", "relative binding free energy": 0.18}, {"sequence": "CGGTTCACGTGTTGTT", "relative binding free energy": 0.36}, {"sequence": "ATCAGCACGTGGTTAT", "relative binding free energy": -0.06}, {"sequence": "TTGTGCACGTGGCCTG", "relative binding free energy": -0.23}, {"sequence": "TTGGTCACGTGCACTT", "relative binding free energy": 0.07}, {"sequence": "TGTATCACGTGGTTGG", "relative binding free energy": 0.12}, {"sequence": "CGGCGCACGTGGTGTA", "relative binding free energy": -0.16}, {"sequence": "TTCTTCACGTGGAGGT", "relative binding free energy": 0.34}, {"sequence": "TCGTACACGTGTTGAT", "relative binding free energy": 0.07}, {"sequence": "TGTGACACGTGATTCG", "relative binding free energy": 0.02}, {"sequence": "CTTGGCACGTGAGAGA", "relative binding free energy": 0.2}, {"sequence": "TCTCTCACGTGTGTTG", "relative binding free energy": 0.2}, {"sequence": "TGAGACACGTGTGGCT", "relative binding free energy": 0.15}, {"sequence": "GTGGTCACGTGTGATC", "relative binding free energy": 0.33}, {"sequence": "GTTGGCACGTGAGGCA", "relative binding free energy": 0.18}, {"sequence": "AAGCGCACGTGGTGGA", "relative binding free energy": -0.17}, {"sequence": "GGCTGCACGTGGGTGT", "relative binding free energy": -0.06}, {"sequence": "TTATGCACGTGGAGTT", "relative binding free energy": -0.04}, {"sequence": "TGGGGCACGTGGCGAG", "relative binding free energy": -0.09}, {"sequence": "ATGTGCACGTGTATGA", "relative binding free energy": 0.06}, {"sequence": "TGGAACACGTGATTGG", "relative binding free energy": 0.2}]}]}
